# Experimental data as given in PubChem BioAssay AID1346428 (National Center for Advancing Translational Sciences (NCATS), 2018).
# In all, about 48,000 compounds went through this assay and about 1,200 (2.5%) were called active. Inconclusive means that the source gave no clear call. Such entries were picked first, then a sample of the others.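 Rule for the calls: active = activation of at least 60% and not above a set upper limit (about 1 call in 100 departs from these limits); inconclusive = activation of 40% to 60%, or above that upper limit; inactive = activation under 40%.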
# Biological target: Probable G-protein coupled receptor 32 (Homo sapiens) (UniProt O75388)
# Test: qHTS for Agonists of Human Resolvin D1 Receptor DRV1
# Details: CHO-K1 GPR32 beta-arrestin PathHunter luminescence, 90 min; at 76.9 µM; active compounds read high; zero percent set by DMSO-only wells
# From the text: Endogenous resolution of inflammation is known to be transduced through various GPCRs and their natural mediators of lipid nature. Resolvin D1 (RvD1) is one of the active players in resolution of acute inflammation through regulation of anti-inflammatory pathways; it is known to enhance phagocytosis of human macrophages, limits neutrophils infiltration, etc. […] The search for GPR32-activating small molecules with anti-inflammatory effects similar to its natural omega-3 derivative ligand in order to use them as research tools for further studies of inflammation and its resolution was the goal of this screening project. For primary screening assay, we used CHO-K1 GPR32 beta-arrestin cell line (DiscoveRx, #93-0321C2A) and the PathHunter(R) beta-Arrestin Assay (DiscoveRx) which measures recruitment of beta-arrestin to the GPR32 and generates chemiluminescent signal. These engineered cells stably transfected with GPR32 co-express GPR32-fused small 42-amino acid fragment of beta-Gal called ProLinktrade mark, and […] -tagged beta-Arrestin fusion protein. When GPR32 is activated by a ligand, it stimulates binding of beta -Arrestin to ProLink-tagged GPR32, and two parts of beta-Gal complement forming a functional enzyme. Upon substrate (PathHunter(R) Detection reagent) addition, beta-Gal hydrolyzes it and generates a chemiluminescent signal.
# The cells were thawed and plated in thawing media containing F-12 HAM (Invitrogen, #11765-054), 10% FBS (Invitrogen, #10082), 1x Glutamine, and 1x Pen/Strep onto the 175-mm flask for 24 hours. Then, thawing media was replaced with Growth media which contains 800microg/mL Geneticin (Invitrogen, #10131) and 300microg/mL Hygromycin B (Invitrogen, #10687) in addition to described above. For the assay, the cells were harvested at ~80% confluent stage with Cell Dissociation buffer (Gibco, #13151), and seeded at 2,500 cells/ 3microL/well in assay media (PathHunter(R) Cell Plating Reagent, DiscoverX, #93-0563R1B) using MultiDrop Combi dispenser (Thermo Scientific, Logan, UT) onto white solid bottom tissue culture-treated 1536-well plates (Greiner # 789173-F) and allowed to attach overnight at 37 degrees C, 95% humidity, 5% CO2, . Next, 23nL/well of compound solutions in DMSO were added with a Pin Tool (Kalypsis, San Diego, CA) to the assay plates. As the basal control (EC0), 23 nL/well of DMSO was used on each plate. The cells were incubated in the presence of compounds or DMSO for 90 minutes at 37 degrees C, 5% CO2. Subsequently, 1.5microL/well of PathHunter(R) Detection Reagent prepared per the manufacturer's instructions was added to the assay plates with BioRAPTR FRDtrade mark dispenser (Beckman Coulter, San Francisco, CA) and incubated for 1 hour at ambient temperature prior to the measurement of the luminescent signal on ViewLux(R) uHTS Microplate Imager (Perkin Elmer, Waltham, MA).
row,Compound,activation
1,CCN(CC)C(=O)c1ccc(NC(=O)COc2ccc(-c3nn(C)c(=O)c4ccccc34)cc2)cc1,inconclusive: 57.3%
2,Nc1c(C(=O)Nc2ccc(F)c(Cl)c2)sc2nc3c(cc12)N1CCC3CC1,inconclusive: 308%
3,CCCCCCCCc1ccc(O)cc1,inconclusive: 168%
4,C[C@]12CC[C@@H]3c4ccc(OC(=O)N(CCCl)CCCl)cc4CC[C@H]3[C@@H]1CC[C@@H]2O,inactive: -0.176%
5,CCc1cc(OC)c(C[C@H](C)N)cc1OC,inconclusive: 59%
6,CCC(C)(C)c1ccc(O)cc1,inconclusive: 131%
7,Cc1nc2ccccc2c(=O)n1-c1ccccc1Cl,inconclusive: 52.6%
8,Cc1ccccc1-n1nc(C)c2c1NC(=O)CSC2c1ccc(Cl)cc1 (stereo not given),inconclusive: 59.8%
9,CCN(CC)C(C)C(=O)c1ccccc1 (stereo not given),inactive: -7.49%
10,Cc1cc(OCC(=O)N2CCN(CCc3ccccn3)CC2)cc(C)c1Cl,inconclusive: 137%
11,Nc1c(C(=O)Nc2cccc(Br)c2)sc2nc3c(cc12)N1CCC3CC1,inconclusive: 289%
12,O=c1oc2ccccc2c(O)c1C(CC(O)c1ccc(-c2ccc(Br)cc2)cc1)c1ccccc1 (stereo not given),active: 82.3%
13,CO/C=C(/C(=O)OC)c1ccccc1Oc1cc(Oc2ccccc2C#N)ncn1,inconclusive: 128%
14,CN1C(=S)CN=C(c2ccccc2)c2cc(Cl)ccc21,inactive: -3.02%
15,COc1cccc(C(=O)CCN[C@@H](C)[C@H](O)c2ccccc2)c1,inconclusive: 141%
16,CC(C)(C)NC[C@H](O)c1ccc(O)cc1Cl,inactive: 5.99%
17,COc1ccc(NC(C)=O)cc1NC(=O)c1cccn(Cc2ccccc2)c1=O,inactive: -6.28%
18,CS(=O)(=O)c1ccc(C(=O)C2C(=O)CCCC2=O)c([N+](=O)[O-])c1,inconclusive: 55.7%
19,COc1ccc(NC(=O)CCc2nc(C3=CCN(Cc4cccc(Cl)c4)CC3)no2)cc1OC,active: 93.8%
20,CC[C@H](O)C(C[C@H](C)N(C)C)(c1ccccc1)c1ccccc1,inconclusive: 155%
21,CCO[C@H]1O[C@@H]2OC3(C)CC[C@H]4[C@H](C)CC[C@@H]([C@H]1C)[C@@]24OO3,inconclusive: 53.6%
22,O=S(=O)(O)C(F)(F)C(F)(F)C(F)(F)C(F)(F)C(F)(F)C(F)(F)C(F)(F)C(F)(F)F,inconclusive: 175%
23,CC[C@]1(O)CC[C@H]2[C@@H]3CCC4=CCCC[C@@H]4[C@H]3CC[C@@]21C,inconclusive: 146%

row,Compound,activation
1,O=c1c(C2CC(c3ccc(-c4ccc(Br)cc4)cc3)Cc3ccccc32)c(O)sc2ccccc12 (stereo not given),inconclusive: 57.4%
2,C=CCC1=C(C)C(OC(=O)C2C(C=C(C)C)C2(C)C)CC1=O (stereo not given),active: 73.6%
3,C[N+](C)(C)CCOC(=O)CBr,inactive: 7.36%
4,Oc1ccc2[nH]cc(CCCCN3CC=C(c4ccccc4)CC3)c2c1,inconclusive: 194%
5,Cc1cccc(-n2c(/C=C/c3cccc4ccccc34)nc3ccccc3c2=O)c1,inconclusive: 58.3%
6,CC(C)(C)c1ccc(O)cc1,active: 69.6%
7,C[C@H]1O[C@@H](O[C@H]2[C@@H](O)C[C@H](O[C@H]3[C@@H](O)C[C@H](O[C@H]4CC[C@@]5(C)[C@H](CC[C@@H]6[C@@H]5CC[C@]5(C)[C@@H](C7=CC(=O)OC7)CC[C@]65O)C4)O[C@@H]3C)O[C@@H]2C)C[C@H](O)[C@@H]1O,inconclusive: 256%
8,COc1ccc(NC(=O)c2cccn(Cc3ccc(Cl)cc3)c2=O)c(OC)c1,inactive: 38.2%
9,COc1ccc(NC(=O)CCc2nc(C3=CCN(Cc4cccc(C)c4)CC3)no2)c(OC)c1,inactive: 14.6%
10,CCCC[N+]1(C)C2CC(OC(=O)[C@H](CO)c3ccccc3)CC1C1OC12 (stereo not given in full),inactive: -3.39%
11,CC(C)(C)CC(C)(C)c1ccc(O)cc1,inconclusive: 182%
12,CCCOc1ccc(C2SCC(=O)Nc3c2c(C)nn3-c2cccc(C)c2)cc1OC (stereo not given),inactive: -5.13%
13,CCCCC/C=C\C/C=C\C/C=C\C/C=C\CCCC(=O)NCC(=O)O,inconclusive: 144%
14,Nc1c(C(=O)Nc2ccc(Cl)c(C(F)(F)F)c2)sc2nc3c(cc12)N1CCC3CC1,inconclusive: 56.8%
15,CCCCCCCCC(=O)NCc1ccc(O)c(OC)c1,inconclusive: 162%
16,FC(F)(F)c1cccc(C2=CCN(CCc3ccc4ccccc4c3)CC2)c1,active: 99.8%
17,CC(=O)[O][Hg][c]1ccccc1,inconclusive: 123%
18,O=C(Nc1ccc(Br)cc1)c1cc(Br)cc(Br)c1O,active: 82.3%
19,CC(C)(C)OC(=O)c1ncn2c1[C@@H]1CCCN1C(=O)c1c(Br)cccc1-2,inconclusive: 150%
20,COc1ccc(C(=O)c2c(C)n(CCN3CCOCC3)c3ccccc23)cc1,inconclusive: 50.3%
21,CCC(OC(C)=O)C(CC(C)NC)(c1ccccc1)c1ccccc1 (stereo not given),active: 85%
22,N#Cc1cc2c(nc1SCC(=O)Nc1ccc(OC(F)(F)F)cc1)C1CCN2CC1,inactive: 15%
